Source: patent publication US8722849B2, “Polypeptides” (Novo Nordisk A/S, priority 2011, dated 2014)
At least one read-out could not be matched to a standard name with certainty. Starred links: 1 amine or outer side, 2 acyl side, 3 side chain; linkers in the order of their positions; H or OH if unused. Positions of bridges follow the written chain, without caps; N, C: chain ends. Residues, ends and D or L forms follow the SMILES beside them. Groups on a side chain read outwards from the residue. *: point of attachment. C20 diacid = O=C(O)CCCCCCCCCCCCCCCCCCC(=O)*; C18 diacid = O=C(O)CCCCCCCCCCCCCCCCC(=O)*; γGlu = O=C(O)[C@H](CCC(=O)[*:2])N[*:1]; AEEA = NCCOCCOCC(=O)O

Assay: Assay (III) ThT fibrillation assay for physical stability
Type: physicochemical
Conditions: ThT fibrillation assay
Outline: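 Freshly prepared formulations, pH-adjusted, with 1 μM ThT; four or eight replicates incubated at 37 °C under 960 rpm orbital shaking. Fluorescence (ex 444/em 485 nm) read every 20 min; […]. Peptide concentration measured by RP-HPLC before and after the run.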

For `CC[C@H](C)[C@H](NC(=O)[C@@H]1CCCN1C(=O)CNC(=O)[C@H](Cc1ccccc1)NC(=O)[C@H](CC(N)=O)NC(=O)[C@H](CC(N)=O)NC(=O)[C@H](CO)NC(=O)[C@H](CO)NC(=O)[C@H](Cc1c[nH]cn1)NC(=O)[C@H](CCCNC(=N)N)NC(=O)[C@H](CC(C)C)NC(=O)[C@H](Cc1ccccc1)NC(=O)[C@H](CCC(=O)O)NC(=O)[C@H](C)NC(=O)[C@H](CC(C)C)NC(=O)[C@H](CCCNC(=N)N)NC(=O)[C@H](CCC(N)=O)NC(=O)[C@@H](NC(=O)[C@H](C)NC(=O)[C@@H]1CSSC[C@H](NC(=O)[C@H](CCCCN)NC(=O)[C@H](Cc2c[nH]cn2)NC(=O)CC[C@H](NC(=O)CCCCCCCCCCCCCCCCCCC(=O)O)C(=O)O)C(=O)N[C@@H](CC(N)=O)C(=O)N[C@@H]([C@@H](C)O)C(=O)N[C@@H](C)C(=O)N[C@@H]([C@@H](C)O)C(=O)N1)[C@@H](C)O)C(=O)N[C@@H](CC(C)C)C(=O)N1CCC[C@H]1C(=O)N1CCC[C@H]1C(=O)N[C@H](C(=O)N[C@@H](CC(N)=O)C(=O)N[C@H](C(=O)NCC(=O)N[C@@H](CO)C(=O)N[C@@H](Cc1c[nH]cn1)C(=O)N[C@H](C(=O)N[C@@H](Cc1ccc(O)cc1)C(N)=O)[C@@H](C)O)C(C)C)[C@@H](C)O` [Example 68, N-alpha-[(S)-4-Carboxy-4-(19-carboxynonadecanoylamino)butyryl]-His-[Glu14,Arg17,His35]-pramlintide] ({C20 diacid-γGlu}-HKCNTATCATQRLAEFLRHSSNNFGPILPPTNVGSHTY-NH2; disulfide 3-8 (inferred); C-terminus assumed), the “ThT pH 4.0 recovery” value was 93%.

In order of rising “ThT pH 4.0 recovery (%)” value:
1. CC[C@H](C)[C@H](NC(=O)[C@H](CCCCNC(=O)COCCOCCNC(=O)COCCOCCNC(=O)CC[C@H](NC(=O)CCCCCCCCCCCCCCCCC(=O)O)C(=O)O)NC(=O)CNC(=O)[C@H](Cc1ccccc1)NC(=O)[C@H](CC(N)=O)NC(=O)[C@H](CC(N)=O)NC(=O)[C@H](CO)NC(=O)[C@H](CO)NC(=O)[C@H](Cc1c[nH]cn1)NC(=O)[C@@H](NC(=O)[C@H](CC(C)C)NC(=O)[C@H](Cc1ccccc1)NC(=O)[C@H](CCC(=O)O)NC(=O)[C@H](C)NC(=O)[C@H](CC(C)C)NC(=O)[C@H](CCCNC(=N)N)NC(=O)[C@H](CCC(N)=O)NC(=O)[C@@H](NC(=O)[C@H](C)NC(=O)[C@@H]1CSSC[C@H](NC(=O)[C@@H](N)CCCCN)C(=O)N[C@@H](CC(N)=O)C(=O)N[C@@H]([C@@H](C)O)C(=O)N[C@@H](C)C(=O)N[C@@H]([C@@H](C)O)C(=O)N1)[C@@H](C)O)C(C)C)C(=O)N[C@@H](CC(C)C)C(=O)N1CCC[C@H]1C(=O)N1CCC[C@H]1C(=O)N[C@H](C(=O)N[C@@H](CC(N)=O)C(=O)N[C@H](C(=O)NCC(=O)N[C@@H](CO)C(=O)N[C@@H](CC(N)=O)C(=O)N[C@H](C(=O)N[C@@H](Cc1ccc(O)cc1)C(N)=O)[C@@H](C)O)C(C)C)[C@@H](C)O [Example 126, N-epsilon25-[2-(2-{2-[2-(2-{2-[(S)-4-Carboxy-4-(17-carboxyheptadecanoylamino)butyrylamino]ethoxy}ethoxy)acetylamino]ethoxy}ethoxy)acetyl]-[Glu14,Lys25]-pramlintide] (H-KCNTATCATQRLAEFLVHSSNNFGK([AEEA-AEEA-γGlu-C18 diacid])ILPPTNVGSNTY-NH2; disulfide 2-7 (inferred))  0%
2. CC[C@H](C)[C@H](NC(=O)[C@@H]1CCCN1C(=O)CNC(=O)[C@H](Cc1ccccc1)NC(=O)[C@H](CC(N)=O)NC(=O)[C@H](CC(N)=O)NC(=O)[C@H](CO)NC(=O)[C@H](CO)NC(=O)[C@H](Cc1c[nH]cn1)NC(=O)[C@H](Cc1c[nH]cn1)NC(=O)[C@H](CC(C)C)NC(=O)[C@H](Cc1ccccc1)NC(=O)[C@H](CCC(=O)O)NC(=O)[C@H](C)NC(=O)[C@H](CC(C)C)NC(=O)[C@H](CCCNC(=N)N)NC(=O)[C@H](CCC(N)=O)NC(=O)[C@@H](NC(=O)[C@H](C)NC(=O)[C@@H]1CSSC[C@H](NC(=O)[C@H](CCCNC(=N)N)NC(=O)[C@H](CCC(=O)O)NC(=O)CC[C@H](NC(=O)CCCCCCCCCCCCCCCCCCC(=O)O)C(=O)O)C(=O)N[C@@H](CC(N)=O)C(=O)N[C@@H]([C@@H](C)O)C(=O)N[C@@H](C)C(=O)N[C@@H]([C@@H](C)O)C(=O)N1)[C@@H](C)O)C(=O)N[C@@H](CC(C)C)C(=O)N1CCC[C@H]1C(=O)N1CCC[C@H]1C(=O)N[C@H](C(=O)N[C@@H](CC(N)=O)C(=O)N[C@H](C(=O)NCC(=O)N[C@@H](CO)C(=O)N[C@@H](CC(N)=O)C(=O)N[C@H](C(=O)N[C@@H](Cc1ccc(O)cc1)C(N)=O)[C@@H](C)O)C(C)C)[C@@H](C)O [Example 25, N-alpha-[(S)-4-Carboxy-4-(19-carboxynonadecanoylamino)butyryl]-Glu-[Arg1,Glu14,His17]-pramlintide] ({C20 diacid-γGlu}-ERCNTATCATQRLAEFLHHSSNNFGPILPPTNVGSNTY-NH2; disulfide 3-8 (inferred))  0%
3. CC[C@H](C)[C@H](NC(=O)[C@@H]1CCCN1C(=O)CNC(=O)[C@H](Cc1ccccc1)NC(=O)[C@H](CC(N)=O)NC(=O)[C@H](CC(N)=O)NC(=O)[C@H](CO)NC(=O)[C@H](CO)NC(=O)[C@H](CCCNC(=N)N)NC(=O)[C@H](Cc1c[nH]cn1)NC(=O)[C@H](CC(C)C)NC(=O)[C@H](Cc1ccccc1)NC(=O)[C@H](CCC(=O)O)NC(=O)[C@H](C)NC(=O)[C@H](CC(C)C)NC(=O)[C@H](CCCNC(=N)N)NC(=O)[C@H](CCC(N)=O)NC(=O)[C@@H](NC(=O)[C@H](C)NC(=O)[C@@H]1CSSC[C@H](NC(=O)[C@H](CCC(=O)O)NC(=O)CC[C@H](NC(=O)CCCCCCCCCCCCCCCCCCC(=O)O)C(=O)O)C(=O)N[C@@H](CC(N)=O)C(=O)N[C@@H]([C@@H](C)O)C(=O)N[C@@H](C)C(=O)N[C@@H]([C@@H](C)O)C(=O)N1)[C@@H](C)O)C(=O)N[C@@H](CC(C)C)C(=O)N1CCC[C@H]1C(=O)N1CCC[C@H]1C(=O)N[C@H](C(=O)N[C@@H](CC(N)=O)C(=O)N[C@H](C(=O)NCC(=O)N[C@@H](CO)C(=O)N[C@@H](CC(N)=O)C(=O)N[C@H](C(=O)N[C@@H](Cc1ccc(O)cc1)C(N)=O)[C@@H](C)O)C(C)C)[C@@H](C)O [Example 30, N-alpha-[(S)-4-Carboxy-4-(19-carboxynonadecanoylamino)butyryl]-[Glu1,Glu14,His17,Arg18]-pramlintide] ({C20 diacid-γGlu}-ECNTATCATQRLAEFLHRSSNNFGPILPPTNVGSNTY-NH2; disulfide 2-7 (inferred))  0%
4. CC(C)C[C@H](NC(=O)[C@H](CCCNC(=N)N)NC(=O)[C@H](CCC(N)=O)NC(=O)[C@@H](NC(=O)[C@H](C)NC(=O)[C@@H]1CSSC[C@H](NC(=O)[C@H](CCCCN)NC(=O)CC[C@H](NC(=O)CCCCCCCCCCCCCCCCCCC(=O)O)C(=O)O)C(=O)N[C@@H](CC(N)=O)C(=O)N[C@@H]([C@@H](C)O)C(=O)N[C@@H](C)C(=O)N[C@@H]([C@@H](C)O)C(=O)N1)[C@@H](C)O)C(=O)N[C@@H](C)C(=O)N[C@@H](CCC(=O)O)C(=O)N[C@@H](Cc1ccccc1)C(=O)N[C@@H](CC(C)C)C(=O)N[C@H](C(=O)N[C@@H](CCCNC(=N)N)C(=O)N[C@@H](CO)C(=O)N[C@@H](CO)C(=O)N[C@@H](CCC(N)=O)C(=O)N[C@@H](CC(N)=O)C(=O)N[C@@H](Cc1ccccc1)C(=O)NCC(=O)N[C@@H](C)C(=O)N1CCC[C@H]1C(=O)N[C@@H](CC(C)C)C(=O)N[C@@H](CO)C(=O)N[C@@H](CO)C(=O)N[C@H](C(=O)N[C@@H](CC(N)=O)C(=O)N[C@H](C(=O)NCC(=O)N[C@@H](CO)C(=O)N[C@@H](CC(N)=O)C(=O)N[C@H](C(=O)N1CCC[C@H]1C(N)=O)[C@@H](C)O)C(C)C)[C@@H](C)O)C(C)C [Example 166, N-alpha-[(S)-4-Carboxy-4-(19-carboxynonadecanoylamino)butyryl]-[Glu14,Arg18,Gln21,Ala25,Pro26,Ser28,Ser29,Pro37]-pramlintide] ({C20 diacid-γGlu}-KCNTATCATQRLAEFLVRSSQNFGAPLSSTNVGSNTP-NH2; disulfide 2-7 (inferred); C-terminus assumed)  2%
5. CC[C@H](C)[C@H](NC(=O)[C@@H]1CCCN1C(=O)CNC(=O)[C@H](Cc1ccccc1)NC(=O)[C@H](CC(N)=O)NC(=O)[C@H](CC(N)=O)NC(=O)[C@H](CO)NC(=O)[C@H](CO)NC(=O)[C@H](Cc1c[nH]cn1)NC(=O)[C@H](Cc1c[nH]cn1)NC(=O)[C@H](CC(C)C)NC(=O)[C@H](Cc1ccccc1)NC(=O)[C@H](CCC(=O)O)NC(=O)[C@H](C)NC(=O)[C@H](CC(C)C)NC(=O)[C@H](CCCNC(=N)N)NC(=O)[C@H](CCC(N)=O)NC(=O)[C@@H](NC(=O)[C@H](C)NC(=O)[C@@H]1CSSC[C@H](NC(=O)[C@H](CCCCN)NC(=O)CNC(=O)CC[C@H](NC(=O)CCCCCCCCCCCCCCCCCCC(=O)O)C(=O)O)C(=O)N[C@@H](CC(N)=O)C(=O)N[C@@H]([C@@H](C)O)C(=O)N[C@@H](C)C(=O)N[C@@H]([C@@H](C)O)C(=O)N1)[C@@H](C)O)C(=O)N[C@@H](CC(C)C)C(=O)N1CCC[C@H]1C(=O)N1CCC[C@H]1C(=O)N[C@H](C(=O)N[C@@H](CC(N)=O)C(=O)N[C@H](C(=O)NCC(=O)N[C@@H](CO)C(=O)N[C@@H](Cc1c[nH]cn1)C(=O)N[C@H](C(=O)N[C@@H](Cc1ccc(O)cc1)C(N)=O)[C@@H](C)O)C(C)C)[C@@H](C)O [Example 81, N-alpha-[(S)-4-Carboxy-4-(19-carboxynonadecanoylamino)butyryl]-Gly-[Glu14,His17,His35]-pramlintide] ({C20 diacid-γGlu}-GKCNTATCATQRLAEFLHHSSNNFGPILPPTNVGSHTY-NH2; disulfide 3-8 (inferred); C-terminus assumed)  50%
6. CC[C@H](C)[C@H](NC(=O)[C@@H]1CCCN1C(=O)CNC(=O)[C@H](Cc1ccccc1)NC(=O)[C@H](CC(N)=O)NC(=O)[C@H](CC(N)=O)NC(=O)[C@H](CO)NC(=O)[C@H](CO)NC(=O)[C@H](Cc1c[nH]cn1)NC(=O)[C@H](CCCNC(=N)N)NC(=O)[C@H](CC(C)C)NC(=O)[C@H](Cc1ccccc1)NC(=O)[C@H](CCC(=O)O)NC(=O)[C@H](C)NC(=O)[C@H](CC(C)C)NC(=O)[C@H](CCCNC(=N)N)NC(=O)[C@H](CCC(N)=O)NC(=O)[C@@H](NC(=O)[C@H](C)NC(=O)[C@@H]1CSSC[C@H](NC(=O)[C@H](CCCCN)NC(=O)[C@H](Cc2c[nH]cn2)NC(=O)CC[C@H](NC(=O)CCCCCCCCCCCCCCCCCCC(=O)O)C(=O)O)C(=O)N[C@@H](CC(N)=O)C(=O)N[C@@H]([C@@H](C)O)C(=O)N[C@@H](C)C(=O)N[C@@H]([C@@H](C)O)C(=O)N1)[C@@H](C)O)C(=O)N[C@@H](CC(C)C)C(=O)N1CCC[C@H]1C(=O)N1CCC[C@H]1C(=O)N[C@H](C(=O)N[C@@H](CC(N)=O)C(=O)N[C@H](C(=O)NCC(=O)N[C@@H](CO)C(=O)N[C@@H](Cc1c[nH]cn1)C(=O)N[C@H](C(=O)N[C@@H](Cc1ccc(O)cc1)C(N)=O)[C@@H](C)O)C(C)C)[C@@H](C)O [Example 68, N-alpha-[(S)-4-Carboxy-4-(19-carboxynonadecanoylamino)butyryl]-His-[Glu14,Arg17,His35]-pramlintide] ({C20 diacid-γGlu}-HKCNTATCATQRLAEFLRHSSNNFGPILPPTNVGSHTY-NH2; disulfide 3-8 (inferred); C-terminus assumed)  93%
